Laboratory results taken from article PMC3297496.
These are yes or no findings as the source states them, for the method shown. Some entries that bind do so weakly or less than the wild type. Tags and fused reporters may be left off the sequences shown.

Columns and labels:
[1] = molecular target: T1, C. elegans D2-like dopamine receptor DOP-2XL, full-length split-ubiquitin bait (dop-2c in pBT3-STE) (C. elegans) (UniProt E7EM37); assay: two-hybrid; split-ubiquitin pair-wise assay in yeast: DOP-2XL baits (full length in pBT3-STE, truncations in pBT3-SUC) with NubG preys (pPR3-N, pPR3-STE, pDL2-Alg5); growth on SD/-Ade-His-Leu-Trp with 1 mM 3-AT and X-gal filter assay
T1 sequence: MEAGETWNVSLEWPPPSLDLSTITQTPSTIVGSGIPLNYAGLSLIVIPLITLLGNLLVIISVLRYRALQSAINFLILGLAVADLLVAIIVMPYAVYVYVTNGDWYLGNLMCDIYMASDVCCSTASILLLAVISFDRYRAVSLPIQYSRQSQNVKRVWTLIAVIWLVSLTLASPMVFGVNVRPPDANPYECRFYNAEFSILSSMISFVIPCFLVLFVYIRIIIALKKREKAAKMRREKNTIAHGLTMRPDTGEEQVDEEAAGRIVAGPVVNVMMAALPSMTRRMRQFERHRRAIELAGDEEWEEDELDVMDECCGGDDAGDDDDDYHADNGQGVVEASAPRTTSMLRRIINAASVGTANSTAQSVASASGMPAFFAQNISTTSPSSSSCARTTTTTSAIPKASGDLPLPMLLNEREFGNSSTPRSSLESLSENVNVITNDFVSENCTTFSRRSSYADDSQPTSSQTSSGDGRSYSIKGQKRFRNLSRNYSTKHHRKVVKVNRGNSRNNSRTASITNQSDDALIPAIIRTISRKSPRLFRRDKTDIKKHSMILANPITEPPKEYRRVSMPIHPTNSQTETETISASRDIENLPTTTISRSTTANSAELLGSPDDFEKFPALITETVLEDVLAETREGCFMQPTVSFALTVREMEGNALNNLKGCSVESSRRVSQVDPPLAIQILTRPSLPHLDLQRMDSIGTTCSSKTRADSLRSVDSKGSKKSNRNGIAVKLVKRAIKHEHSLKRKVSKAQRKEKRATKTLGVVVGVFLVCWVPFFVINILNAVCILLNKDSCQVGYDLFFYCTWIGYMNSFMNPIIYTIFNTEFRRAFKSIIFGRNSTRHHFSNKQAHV

[2] = molecular target: T2, DOP-2IL-CIII (DOP-2XL amino acids 224-849), split-ubiquitin bait in pBT3-SUC (C. elegans) (UniProt E7EM37); assay: as above
T2 sequence: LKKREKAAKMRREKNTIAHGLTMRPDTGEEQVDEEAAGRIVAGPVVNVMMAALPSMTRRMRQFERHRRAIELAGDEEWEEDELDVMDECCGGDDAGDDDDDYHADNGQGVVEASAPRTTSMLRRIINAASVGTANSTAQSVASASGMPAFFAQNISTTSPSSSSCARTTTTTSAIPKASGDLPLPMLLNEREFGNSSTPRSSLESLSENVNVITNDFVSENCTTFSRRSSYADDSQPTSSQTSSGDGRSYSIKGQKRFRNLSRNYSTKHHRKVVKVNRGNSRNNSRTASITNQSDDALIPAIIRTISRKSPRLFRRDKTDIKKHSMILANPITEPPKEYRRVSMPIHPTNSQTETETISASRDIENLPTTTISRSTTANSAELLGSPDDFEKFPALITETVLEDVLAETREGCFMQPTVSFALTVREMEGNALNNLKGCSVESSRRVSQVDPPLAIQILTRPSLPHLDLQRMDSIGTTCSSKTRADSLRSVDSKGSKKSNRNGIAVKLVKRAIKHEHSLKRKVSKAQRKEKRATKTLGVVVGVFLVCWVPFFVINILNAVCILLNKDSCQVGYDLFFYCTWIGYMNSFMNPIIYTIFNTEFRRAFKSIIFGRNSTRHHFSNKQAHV

[3] = molecular target: T3, DOP-2IL-CIV (DOP-2XL amino acids 821-849), split-ubiquitin bait in pBT3-SUC (C. elegans) (UniProt E7EM37); assay: as above
T3 sequence: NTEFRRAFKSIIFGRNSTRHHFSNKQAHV

[4] = molecular target: T1, C. elegans D2-like dopamine receptor DOP-2XL, full-length split-ubiquitin bait (dop-2c in pBT3-STE) (C. elegans); assay: two-hybrid; split-ubiquitin library screen: full-length dop-2c bait (pBT3-STE, Cub-LexA-VP16) in S. cerevisiae NMY51 against an adult C. elegans cDNA library in pPR3-N (NubG); selection on -Ade-His-Leu-Trp + 1 mM 3-AT, X-gal filter lift-off assay

binding [1]: binds | binding [2]: binds weakly | binding [3]: no binding | binding [4]: binds
B1: GPA-14, split-ubiquitin prey in pPR3-N (NubG fusion) (protein, UniProt Q9BIG2 1-408)
chain: MAFSCFDKFSYTYCYQCMHGPDGCMVPSRNGEGTELYAHSEELEAKLRELARRGHMEIEKELALEKKTYGSHIKILILGGPLSGKSTIFKQMQIIHVDGFKTDQELIQYRGLIDNNIRDIYLQLIAGSRVVGIPLDPIEHITYEIDEIYAPMSDAFSVRTISELLEPLTEFWNSKQIQEIYKRRCEFELLDSTKYYLENLTRIADPTYLPNQEDIVHSRKATMSINSIVFEYTGVSLLMIDVGGQRSERKKWLHLFDDAKVVLFVIDLTGYAKRSEESRMELSRFPKFFRDVGSNAYDMKVALKIFNEVAAASALANAVFLLFFNKVDLFKEILSQVNLQPCFSKFDGENTYEETSKYICEKFIRAASSKKSVFPHFTTATNTENVKLVFRACMESVFKANAKATGLS
